# Results taken from PubChem BioAssay AID2675 (National Center for Advancing Translational Sciences (NCATS), 2010).
# The whole screen tested about 280,000 compounds, of which about 100 (0.036%) were called active. The shares of active, inactive and inconclusive entries below differ from those in the screen. Calls follow the shape of the dose curve; as a rule, active = well fitted inhibition curve with a large enough effect in the signal ratio, with a control signal flat (not every such curve was filed as active); inconclusive = small, poorly fitted or top-dose-only effect, or effect the other way, or a change in a side signal; inactive = no such curve, though single readings can be large or run the other way; the % refers to the signal ratio. Potencies of inconclusive entries are doubtful fits and often do not repeat. “Side channel” marks fits to a control or component signal instead of the main read-out.
# Molecular target: Muscleblind-like protein 1 (Homo sapiens) (UniProt Q9NR56)
# Sequence of UniProt Q9NR56 (Q9NR56 whole entry, looked up): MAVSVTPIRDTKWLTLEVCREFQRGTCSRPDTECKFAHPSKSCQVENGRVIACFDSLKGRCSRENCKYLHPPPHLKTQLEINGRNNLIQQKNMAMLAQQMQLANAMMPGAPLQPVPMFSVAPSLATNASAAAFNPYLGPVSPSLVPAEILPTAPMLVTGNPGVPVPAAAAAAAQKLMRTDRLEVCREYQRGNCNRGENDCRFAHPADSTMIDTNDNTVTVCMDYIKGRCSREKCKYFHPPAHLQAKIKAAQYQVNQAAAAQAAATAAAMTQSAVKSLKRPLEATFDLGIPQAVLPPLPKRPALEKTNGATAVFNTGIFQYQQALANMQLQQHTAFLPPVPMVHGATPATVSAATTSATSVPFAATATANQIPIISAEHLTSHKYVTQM
# Assay: qHTS Assay for Inhibitors of MBNL1-poly(CUG) RNA binding
# Conditions: TR-FRET MBNL1-His/biotin-(CUG)12 binding, 665/545 ratio; activity change, negative = inhibition: at 57.5 µM (top of the series)
# Procedure, shortened: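 Compound titration spanned 92 nM–58 uM against the MBNL1-His/biotin-(CUG)12 complex. After 60 min at room temperature with 5 nM streptavidin-XL665 and 0.055 ng/ul terbium anti-His, ratiometric 665/545 nm emission (Ex 340 nm) normalized to controls.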
# % is scaled to controls: 0 for no effect and ±100 for the full control effect; potency is read from the fitted curve at half-maximal effect; tags tell the direction and shape of the fitted curve or compound fluorescence and quenching.
SMILES,Potency,"activity change, negative = inhibition"
Cc1nc2ccc(Br)cn2c(=O)c1Cl,"inconclusive: 20 µM [quencher, side channel, partial curve]",–
COc1ccc(C(=O)Nc2cnc3ccccn3c2=O)cc1,"inconclusive: 12.6 µM [quencher, side channel, partial curve]",–
CCCCn1c(=O)c(C(=O)c2ccccc2)nc2ccccc21,"inconclusive: 15.8 µM [quencher, side channel, partial curve]",–
COc1ccc(C2=NN(C(=O)CSc3cn(C)c4ccccc34)C(c3ccc(OC)cc3)C2)cc1 (stereo not given),"inconclusive: 0.708 µM [quencher, side channel, full curve]",–
CCSc1nnc(N2C(=O)c3ccc(C(=O)c4ccc(C(=O)O)cc4)cc3C2=O)s1,"inconclusive: 20 µM [quencher, side channel, single point]",–
COc1ccc(C(=O)NNC(=O)c2ccc3ccccc3c2O)cc1,inactive,–
Nc1n[nH]c(N)c1N=Nc1ccccc1,"inconclusive: 22.4 µM [quencher, side channel, partial curve]",–
O=C(CSc1nnc(-c2ccccn2)o1)Nc1ccccc1,inactive,–
O=c1[nH]c2cc3c(cc2cc1C(c1nnnn1Cc1ccccc1)N1CCN2CCCC2C1)OCCO3 (stereo not given),inactive,–
Cn1cc(C(=O)c2ccc(Cl)cc2Cl)cc1C(=O)N/N=C(\N)COc1ccccc1,inactive,–
Cn1nnnc1SCCNCc1cc(Cl)ccc1OCc1ccccc1,inactive,–
Cc1ccc(-n2c(SCC(=O)Nc3ccc4c(c3)OCO4)nnc2-c2cccs2)cc1,inactive,–
CN1c2ccccc2Oc2nnc(Cl)cc21,"inconclusive: 31.6 µM [quencher, side channel, single point]",–
COc1ccc(OC)c(NC(=O)CCNS(=O)(=O)c2cccc3nsnc23)c1,"inconclusive: 25.1 µM [quencher, side channel, partial curve]",–
O=C(CSCc1ccc(Br)cc1)N=Nc1c(O)[nH]c2ccccc12,"inconclusive: 20 µM [quencher, side channel, single point]",–
COc1ccc(Nc2c3c(nc4ccccc24)CCCC3)cc1OC,"inconclusive: 22.4 µM [quencher, side channel, partial curve]",–
O=C(Nc1ccc(N2CCOCC2)c(Cl)c1)c1ccc2c(c1)OCCO2,inactive,–
O=C(CNC(=O)c1ccc2c(c1)OCCO2)N/N=C/c1ccc([N+](=O)[O-])cc1,"inconclusive: 3.55 µM [quencher, side channel, full curve]",–
O=C1C(NS(=O)(=O)c2cccs2)=C(N2CCN(Cc3ccccc3)CC2)C(=O)c2ccccc21,"inconclusive: 8.91 µM [quencher, partial curve]",–
CCOc1ccccc1NC(=O)CCNS(=O)(=O)c1cccc2nsnc12,"inconclusive: 14.1 µM [quencher, side channel, partial curve]",–

SMILES,Potency,"activity change, negative = inhibition"
Cc1cccc(NC(=O)c2ccc([N+](=O)[O-])o2)n1,"inconclusive: 14.1 µM [quencher, side channel, partial curve]",–
Nc1ccc(N)c(C(=O)O)c1,"inconclusive: 15.8 µM [quencher, side channel, partial curve]",–
CC(=O)/C(N=Nc1ccc(C(=O)O)cc1)=C(\C)O,"inconclusive: 31.6 µM [quencher, side channel, single point]",–
Cc1ccc(S(=O)(=O)N2CCCC(C(=O)NCc3ccco3)C2)cc1Cl (stereo not given),"inconclusive: 39.8 µM [quencher, side channel, single point]",–
O=C(N/N=C/c1cccc(O)c1)c1ccc2c(c1)OCCO2,"inconclusive: 28.2 µM [quencher, side channel, single point]",–
Cc1[nH]c2ccccc2c1/C=N/NC(=O)c1ccccc1,"inconclusive: 14.1 µM [quencher, side channel, partial curve]",–
COc1cc(-c2c(C#N)c(N)nc3c2c(C)nn3-c2ccc(C)c(C)c2)cc(OC)c1OC,"inconclusive: 39.8 µM [fluorescent, single point]",–
O=C(NC12CC3CC(CC(C3)C1)C2)c1ccc(-c2cccc(Cl)c2)o1,"inconclusive: 0.316 µM [fluorescent, side channel, full curve]",–
CCc1ccc(Nc2n[n+](-c3ccccc3)c(-c3c(Cl)cccc3Cl)s2)cc1,inactive,–
O=[N+]([O-])c1ccc2nn(Cc3ccccc3)cc2c1,"inconclusive: 12.6 µM [quencher, side channel, partial curve]",–
O=C1NCCCC2c3c(cc(Br)c(O)c3Br)OC12N1CCOCC1 (stereo not given),"inconclusive: 100 µM [inhibitor, partial curve]",–
C/C(=N/NC(=O)c1ccco1)c1ccc(Br)s1,"inconclusive: 15.8 µM [quencher, side channel, partial curve, poor fit]",–
CCOc1ccc(NC(=O)CN(C)C(=O)c2ccc(=O)[nH]c2)cc1OCC,inactive,–
O=C(CC(=O)N/N=C\c1ccccc1[N+](=O)[O-])NCCc1ccccc1,"inconclusive: 3.16 µM [quencher, full curve]",–
CN=c1scc(C)n1/N=C/c1ccc(O)cc1,"inconclusive: 22.4 µM [quencher, side channel, single point]",–
CCOC(=O)c1nnn(-c2ccc([N+](=O)[O-])cc2)c1C,"inconclusive: 7.08 µM [quencher, side channel, partial curve]",–
O=[N+]([O-])c1ccc(CSc2nnc(Cc3ccccc3)o2)cc1,"inconclusive: 17.8 µM [quencher, side channel, partial curve]",–
COc1ccc(/C=C/C(=O)OCC(=O)Nc2ccc(C)cc2)cc1S(=O)(=O)N1CCOCC1,"inconclusive: 25.1 µM [quencher, side channel, single point]",–
CN1CCc2c(sc3c2C(=O)NC(c2ccccn2)N3)C1 (stereo not given),"inconclusive: 15.8 µM [quencher, side channel, partial curve]",–
CCCCCn1c(NC(=O)c2ccco2)c(S(=O)(=O)c2ccc(C)cc2)c2nc3ccccc3nc21,inactive,–

SMILES,Potency,"activity change, negative = inhibition"
CCN1CCN(c2ncc3c(n2)CC(c2cc(OC)c(OC)c(OC)c2)CC3=O)CC1 (stereo not given),"inconclusive: 4.47 µM [fluorescent, side channel, partial curve]",–
CN1CCCN(C(c2ccccc2)c2ccc(Cl)cc2)CC1 (stereo not given),inactive,–
CC1=Nc2ccccc2/C1=C/c1sc(=N)n(-c2nccs2)c1O,inactive,–
COc1ccc([N+](=O)[O-])cc1NC(=O)C(C)OC(=O)/C=C/c1ccco1 (stereo not given),"inconclusive: 25.1 µM [quencher, side channel, partial curve]",–
O=C1C(Cl)=C(NS(=O)(=O)c2ccc([N+](=O)[O-])cc2)C(=O)c2ccccc21,"inconclusive: 12.6 µM [quencher, side channel, partial curve]",–
CCOC(=O)c1cc([N+](=O)[O-])sc1N,"inconclusive: 25.1 µM [quencher, side channel, partial curve]",–
CCc1cc2c(=O)[nH]c(-c3ccccn3)nc2s1,"inconclusive: 25.1 µM [quencher, side channel, single point]",–
COc1ccc(C(=O)N/N=C/c2ccc(OC(=O)c3cccc4ccccc34)c([N+](=O)[O-])c2)cc1,"inconclusive: 22.4 µM [quencher, side channel, partial curve]",–
O=C(O)c1ccccc1NS(=O)(=O)c1ccc2c3c(cccc13)C(=O)N2,"inconclusive: 20 µM [quencher, side channel, partial curve]",–
CCC1(c2ccccc2)NC(=O)N(Cc2cccc([N+](=O)[O-])c2)C1=O (stereo not given),"inconclusive: 14.1 µM [quencher, side channel, partial curve]",–
CCOn1c(=O)c(-c2cccc3ccccc23)[n+]([O-])c2ccccc21,"inconclusive: 15.8 µM [quencher, side channel, partial curve]",–
CC(C)(C)CC(=O)Nc1cccc(-c2cn3cccnc3n2)c1,"inconclusive: 35.5 µM [quencher, side channel, single point]",–
COCCCNC(=S)NC1CC2CCC(C1)N2Cc1ccccc1 (stereo not given),inactive,–
CCN(CC)C(=O)Cn1cc(/C=C(\C#N)C(=O)NC2CC2)c2ccccc21,"inconclusive: 28.2 µM [quencher, side channel, partial curve]",–
Cc1cccc(CCNC(=O)C2CCN(S(=O)(=O)c3cccc4nsnc34)CC2)c1,"inconclusive: 3.98 µM [quencher, side channel, single point]",–
CCCCC1(CC(=O)OCC)C(=O)N(c2ccccc2)N(c2ccccc2)C1=O,"inconclusive: 6.31 µM [quencher, side channel, full curve, poor fit]",–
O=C(NC(=S)Nc1ccc(C(=O)N2CCOCC2)cc1)c1ccc([N+](=O)[O-])cc1,"inconclusive: 5.62 µM [quencher, side channel, partial curve]",–
Cn1c(-c2ccc(Cl)cc2)cnc1NCc1cc2c(cc1[N+](=O)[O-])OCO2,–,inconclusive: 29.9% [phenotype inactive]
CN1C(=O)c2cccc3c(S(=O)(=O)Nc4ccccc4F)ccc1c23,"inconclusive: 12.6 µM [quencher, side channel, partial curve]",–
Cc1ccc(C(=O)Nc2ncc3c(Cl)cccc3n2)cc1,"inconclusive: 35.5 µM [quencher, side channel, single point]",–
